90 sequences from the supplement of paper PMC11417369 can be followed below.

This is one part of the list.

For the assay, the system named is PfSIP2 AP2 domain 1 (GST-tagged). As to the kind of experiment: gcPBM binding intensity (ln(normalized median fluorescence intensity)); higher = stronger DNA binding. The gist of the method: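 The highest Masliner-normalised natural-log median intensity across replicate spots of either probe orientation is reported as binding intensity. GST-tagged P. falciparum DNA-binding domains expressed in E. coli were applied for 1 h to an Agilent 4 × 180k array of primer-extended double-stranded 36-bp intergenic genomic probes plus negative controls, and bound protein was detected with Alexa488 anti-GST antibody and scanned at 488 nm.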
On to “GCTTTTTATTTTTACCGTACATTATATATGTATATA [XGTACX_site808]”, for which the “gcPBM binding intensity (ln)” value was found to be 7.76.
For “ATATTATTAATTTATAGTACTCATTTTTTTTTTTTT [XGTACX_site3536]” the value was 6.97; for “ATATATATATTTGTGTGTACATATTAATTTGTATGA [XGTACX_site4047]”, 8.58; for “AACGCGAACAATTTATAGATAACTTTTAATTATTAT [GTGCAC_negctrl_site179]”, 6.76.
For “AATATATATATAGGATGTACACATAATTCAAATACA [XGTACX_site6368]” the value was 7.31.
For “ATTTAATACAAATACACACACAAATATATACATATA [CACACA_site3747]” the value was 7.05.
For the sequence “TATATATATATAAACTGTACTATTTTATGTTAAAAG [XGTACX_site3630]”, the “gcPBM binding intensity (ln)” value was determined as 9.05.
For “ATGGTATATCCAAATAAACACACGTAAATACATAAA [CACACA_site1682]” the value was 6.93.
For “ATACATTTTTGTAAAAGTACATATACATGCCCCCTT [XGTACX_site1367]” the value was 8.44; for “TCGAACGTATCATGTGTACACACAAATTGTTTTTTT [CACACA_site8623]”, 7.2; for “CCTTGCCCCAGGAGTTCACACACATAATAGATTGTC [CACACA_site8138]”, 7.17.
The result for GTATAAAAGTAACTAGTGCATTACATATGAATAAAA reads 8.48.
Take “AGATATTTTTCTTAAGTACACACTAATTAGAAACTA [CACACA_site7897]”: the “gcPBM binding intensity (ln)” value stood at 6.93.
The result for “TTTTTATTTTAAAAGAATAATTATCTAATATCTATA [CACACA_negctrl_site371]” reads 6.77; that for “TTACCTCTTTGAAATATACACACTAAACATATCAAC [CACACA_site2455]”, 7.16.
For “GACACCTGCATGAAAGTGCAAAATAGAAAAGGAACA [GTGCAC_site9593]” the value was 10; for “AAATACCTTATATATACACACTATGTTTTTCTTTTT [CACACA_site4792]”, 6.96.
For “AACACGCACAGACACACACACAAAAATGATTAAAAA [CACACA_site7195]” the value was 7.47; for “AAGGAATAATAATAAATGTAAAGAAAAGCATACTGA [CACACA_negctrl_site36]”, 6.9; for “AAAAGAAGAAACAAAACACACACAGTCTTCTTTTCT [CACACA_site9015]”, 6.86.
On to “TTTATGAGGTTACTATGTACGCAAATTATGTAATAA [XGTACX_site325]”, for which the “gcPBM binding intensity (ln)” value came out at 7.25.
For “ATTTGTGTTATTCGAAGTACGGATCATTTGAAATAA [XGTACX_site2510]” the value was 7.03; for “TCAAATTATTAAAATACACACATATTATATATATAT [CACACA_site2530]”, 8.73.
On to “AGCAATTTGGGGTGTACACACACCTTATTTAAATTA [CACACA_site1157]”, for which the “gcPBM binding intensity (ln)” value worked out at 6.97.
For “TATATCTCTTTATTCACACATACGTTTTAAAATAAT [CACACA_site5542]” the value was 7.26; for “TAATAAAACATATATACACACATTAGATATACATAT [CACACA_site6897]”, 7.03.
For “TTCCCAACATGATATTGTACATTTAATTATAATTAA [XGTACX_site7029]” the value was 7.31; for “TATAAATAAAGACACACACACACACCGTATAATTAC [CACACA_site7829]”, 7; for “TATATTAAAAAAAAATGTACACATATATATATATAT [XGTACX_site4524]”, 9.46.
“TATATGTTTGAATATACACACAACATATATATATAT [CACACA_site4066]”: the “gcPBM binding intensity (ln)” value was found to be 9.49.
The result for “ATATTATTAATTTGTTGTACAGTTCTTTATTTATAG [XGTACX_site7932]” reads 7.34; that for “CCAGGAAAAATTTATTGTACATATATTTTTATGCTC [XGTACX_site7154]”, 7.01; that for TATTTTTGGTTATGTGTGCACTATGAACAACAAAAT, 10.5.
The result for “TATTTTTAACAGTGCACACATAACTTAATTATATGT [CACACA_site2194]” reads 10.6; that for “GTGCATAAATCATACACACACACATATATATATATA [CACACA_site2423]”, 9.48.
Take “GAAAGAAAATATTAAGTGCATATTTTAATGATACAA [GTGCAC_site9712]”: the “gcPBM binding intensity (ln)” value stood at 8.21.
The result for “ATAAAAATAAAAAAAACACACATACCTTATTTTTGT [CACACA_site5452]” reads 7.17; that for “ATTTTCCATATATTTTGTACATATGTATATTTTCCC [XGTACX_site7795]”, 7.03; that for “AAATATAAATGGTAATACACATACACACACACATAC [XGTACX_negctrl_site459]”, 7.49.
For “AATCAAAATAAATTAACACACAATTTTAATATTGTT [CACACA_site10]” the value was 6.82.
With “TATAAAAAATTATGTTGTACGTAATATAAAATTTGT [XGTACX_site7122]”, the “gcPBM binding intensity (ln)” value was 7.32.
For “ACCCTCATATTATAGACACACACAAAAAAAATAAAA [CACACA_site7941]” the value was 7.51; for “AGAAATGAAATATACACACATACATATATACATATA [CACACA_site4033]”, 7.21; for “TAAATACACCCTAGACGTACATAAAAATTTAGTATG [XGTACX_site2512]”, 7.07.
For “ATTAATAATGAGTTATGTACATACATATTTTAAGAT [XGTACX_site7543]” the value was 7.16; for “ATATTTATATATATGTGTACATATAGAAACATAAAA [XGTACX_site4355]”, 7.01.
For “CTTCTTATTTTCTAATGTACGTACAAATCATTTATA [XGTACX_site2176]” the value was 8.
As to “TAAACATACATATACACACACACACCCACACCCACA [CACACA_site492]”, the “gcPBM binding intensity (ln)” value was determined as 7.23.
For AAAAACAAACTGTGCATGCACCAAAAAAAAAAAAAA the value was 10.4; for “TGTCCTTATGGGCACACACACATATAAGAAATTTAA [CACACA_site3187]”, 7.07; for “TTTTTTTTTTTAATTTGTACGAATCTTTTTATTTTA [XGTACX_site4516]”, 6.72.
The result for “TAAAAATAGTATACAACACACGAGGGAAAATAAAGT [CACACA_site3837]” reads 7.56; that for “TATCGAGCACGGCGTGTGGAGTTACAAAGAGGAGAA [CACACA_negctrl_site40]”, 6.99; that for GCCAATAAAGATGTGGTGCATTATATATATATATAT, 10.6.
For “AAATGTATAATATTTTCACACACAAGAAAAAAGAAA [CACACA_site9195]” the value was 6.83.
As for “CGTATTTATATAATTACACACCATATTTTAATTATT [CACACA_site5960]”, the “gcPBM binding intensity (ln)” value came out at 7.12.
For “ATTTATTTGTTTGTTTTTTTTACGATTTTTATTTTT [CACACA_negctrl_site1138]” the value was 6.97; for “ATAAACAATTAACAAACATGCAAATTTTAAATGTGT [TGCATGCA_site919]”, 6.86; for “TAATTTTTTTTTCTTGTACACACTATTTTATAATTT [CACACA_site4078]”, 7.09.
For “ATCTATGATATATACACACACATGTATAAATAAATA [CACACA_site7012]”, the “gcPBM binding intensity (ln)” value came out at 6.95.
The result for “AATAGTATTCACAAAGTTTTATATAATAAATATAAA [GTGCAC_negctrl_site154]” reads 6.71.
For the sequence “CTTTCATATGTTTTAACACACACGCATATATTATAT [CACACA_site8615]”, the “gcPBM binding intensity (ln)” value was 7.37.
For “TTTTTTTTTTTGATTTGTACACAAAAAAAATATATG [XGTACX_site4547]” the value was 7.18.
For “TTTTTTTTTTTTTTTTGTACATATTTTTAAACTATA [XGTACX_site2897]” the value was 6.99; for “TTTTTTTTTTGATGTTGTACATATATATTATATATA [XGTACX_site6377]”, 7.17.
For “AGATATATGGACGACTCACACATTTAAATTCATTCA [CACACA_site6047]” the value was 7.08; for “CTAGCAAATACATACACACACACACCGATACAGATA [CACACA_site5853]”, 7.18; for “ATATATACATATATTACACACTTCTTATTCTAAGAA [CACACA_site3022]”, 6.91.
On to “TCCATAAAAATGGATACACACACATAATATATATAT [CACACA_site9207]”, for which the “gcPBM binding intensity (ln)” value was 8.38.
For “TATAATATAAGGATCACACACAAACACCCATATATA [CACACA_site4468]” the value was 7.07; for “CATACATACATACATACACACATACCTATATTTATA [CACACA_site6769]”, 8.07; for “TTAATAACAAAATAAACACACATATATAAATACCCA [CACACA_site4960]”, 6.94.
Consider “TTGCCCATTTAATTAACACACAAATGTTTATATTCT [CACACA_site6488]”, for which the “gcPBM binding intensity (ln)” value is 7.17.
On to “TTTGAAATAAGCAAATGTACATTATTATTAAATATA [XGTACX_site6158]”, for which the “gcPBM binding intensity (ln)” value came to 6.72.
With “TTCACATACAGAAACACACACATATATATAAATTAA [CACACA_site3705]”, the “gcPBM binding intensity (ln)” value is 7.37.
For TGTATGATAACTATAGTGCATTTGGTAATTTTTCCA the value was 8.37.
For “TATTTCATGATACAATGTACATGTATATATGATACC [XGTACX_site5057]” the value was 7.19; for “AATAATATATATTACACACGCATCGTTCATTTATTT [CACACA_site2391]”, 7.11; for “AAATATAATATATGCACACATACATACAGATATATA [CACACA_site4235]”, 7.09.
The result for “ATAAATATAGGACACACACACATATTATATATATAT [CACACA_site5658]” reads 8.41.
On to “ATAATATAAATATGCACACAAATTATTACCCAAAAA [CACACA_site2524]”, for which the “gcPBM binding intensity (ln)” value was 8.85.
For “GTTATATTCCTACAGAGTACATAAAAATGCACATCA [XGTACX_site1948]” the value was 7.54.
Regarding “TATATAAAAAAACAAAGTACATGTTCTTAATCATTT [XGTACX_site8446]”, the “gcPBM binding intensity (ln)” value was found to be 6.64.
For “AAATGAACAAGTGGCACACACACATCATAACTAATT [CACACA_site5730]” the value was 6.77.
For “CACGCGAACATACATACACACACATATATATATATG [CACACA_site7951]” the value was 7.21.
For “ATATATTTTTTCTTAACACACATATATAAAATAAAA [CACACA_site3500]” the value was 7.23.
In the case of “CAAAATATATATACCACACACACATACCTCTATTTG [CACACA_site1853]”, the “gcPBM binding intensity (ln)” value stood at 7.11.
The result for “TATATATATATATACACACACACACCGATATATATA [CACACA_site8813]” reads 9.17; that for “AGCCACTTAAAATACACACACACCAAAAAAAAAAAA [CACACA_site5497]”, 7.35; that for “TATTTTATTTATTGAAGTACATTATACAAAAATAAA [XGTACX_site4824]”, 7.21.
